The values below come from publication PMC4336329 (PLoS ONE, 2015).

In all, about 310,000 compounds went through this assay and about 2,200 (0.71%) showed an effect of 50% or more. The effect is printed as a negative number. The list shows a part of the results.

human ether-à-go-go-related gene (hERG) potassium channel, sequence (Q12809 whole entry, looked up): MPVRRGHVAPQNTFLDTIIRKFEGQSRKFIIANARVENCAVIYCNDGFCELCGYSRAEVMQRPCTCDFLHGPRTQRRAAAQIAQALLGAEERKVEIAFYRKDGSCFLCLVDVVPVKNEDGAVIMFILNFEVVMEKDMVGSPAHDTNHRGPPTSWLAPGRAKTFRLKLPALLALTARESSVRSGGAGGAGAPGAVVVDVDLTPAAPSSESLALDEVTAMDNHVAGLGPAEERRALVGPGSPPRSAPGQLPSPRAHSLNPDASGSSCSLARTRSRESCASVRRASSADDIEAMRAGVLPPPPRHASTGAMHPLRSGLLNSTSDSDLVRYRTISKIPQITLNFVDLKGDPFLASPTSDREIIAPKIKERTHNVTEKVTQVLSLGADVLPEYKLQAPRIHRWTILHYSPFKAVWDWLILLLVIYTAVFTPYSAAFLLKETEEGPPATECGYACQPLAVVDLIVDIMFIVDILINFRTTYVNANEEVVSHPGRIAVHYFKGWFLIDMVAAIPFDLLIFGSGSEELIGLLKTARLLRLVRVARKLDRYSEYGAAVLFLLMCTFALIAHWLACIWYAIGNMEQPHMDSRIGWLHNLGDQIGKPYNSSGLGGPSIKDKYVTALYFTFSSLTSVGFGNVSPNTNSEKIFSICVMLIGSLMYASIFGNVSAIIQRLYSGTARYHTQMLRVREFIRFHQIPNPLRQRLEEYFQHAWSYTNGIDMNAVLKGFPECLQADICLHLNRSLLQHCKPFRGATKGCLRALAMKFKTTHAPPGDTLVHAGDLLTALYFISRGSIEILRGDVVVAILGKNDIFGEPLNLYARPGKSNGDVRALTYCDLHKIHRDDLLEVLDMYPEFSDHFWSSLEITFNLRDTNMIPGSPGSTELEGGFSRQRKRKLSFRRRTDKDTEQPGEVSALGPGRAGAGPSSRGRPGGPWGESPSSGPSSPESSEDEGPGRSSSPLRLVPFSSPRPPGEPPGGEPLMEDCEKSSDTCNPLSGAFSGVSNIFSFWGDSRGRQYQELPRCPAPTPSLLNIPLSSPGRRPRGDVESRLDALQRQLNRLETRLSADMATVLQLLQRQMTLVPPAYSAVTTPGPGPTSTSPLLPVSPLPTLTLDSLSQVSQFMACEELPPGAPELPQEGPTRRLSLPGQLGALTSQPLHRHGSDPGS

This test has as its target human ether-à-go-go-related gene (hERG) potassium channel (human, UniProt Q12809). The experiment in a line: primary screen, population patch clamp on CHO cells stably expressing hERG.
Take `CC(=O)c1cc(C#N)c(SCc2ccccc2)nc1C`: the “hERG current change (%, negative = inhibition) at 1uM” value is 17.9%. The figure for `CC1=CC2=NC(=O)CC(C)(C(=O)N(CC(=O)NC3CCCC3)c3ccccc3F)N2C=C1` (stereo not shown) is 19.2%; for `Cc1ccc(CSc2nnc(-c3ccco3)o2)cc1` it is 14.4%.

Turning to `COc1ccccc1-n1nnnc1SCC(=O)NC1CCCCC1`, the “hERG current change (%, negative = inhibition) at 1uM” value amounted to 9.3%. With `CC/C(=N/Nc1ccccc1C)c1cnnc(SC)n1`, the “hERG current change (%, negative = inhibition) at 1uM” value turned out to be 10.8%. The figure for `CC1=C([N+](=O)[O-])C(c2ccccc2C(F)(F)F)NC(=O)N1C` (stereo not shown) is 9.96%; for `Cc1cc(=O)oc2cc(OCC(=O)OCC(=O)Nc3ccccc3C(C)C)ccc12` it is 7.48%.

Consider `CCCN1CCN(CCCNC(=O)c2ccc3c(c2)NC(=O)c2ccccc2S3)CC1`, for which the “hERG current change (%, negative = inhibition) at 1uM” value came out at 9.21%. Next, `COc1ccccc1N1CCN(C(=O)c2ccc3c(Cl)c4c(nc3c2)CCCC4)CC1`: 11.1%. On to `COc1cc(=O)n2c(-c3ccccc3)csc2n1`, for which the “hERG current change (%, negative = inhibition) at 1uM” value is on record as 10.9%. The figure for `CCc1ccccc1NC(=S)N(CCCN(C)C)Cc1cc2cc3c(cc2[nH]c1=O)OCO3` is 4.24%; for `CCN(C(=O)CCN1C(=O)c2ccccc2C1=O)C1CCCCC1` it is 12.2%. Next, `O=C(C1CCCN(S(=O)(=O)c2cccc3cccnc23)C1)N1CCc2ccccc21` (stereo not shown): -11.6%; `COC(=O)Nc1sc2c(c1C(=O)N1CCOCC1)CCC(C)C2` (stereo not shown): -3.07%; `CCOC(=O)/C(=C\c1ccccc1)NC(=O)c1ccccc1`: 5.91%.

Turning to `COc1cccc(C(=O)NC(=O)Nc2nc(C)cc(C(F)(F)F)n2)c1`, the “hERG current change (%, negative = inhibition) at 1uM” value came to 15.6%. Next, `CC(=O)NC1C(=O)N(Cc2ccccc2)c2ccc(Br)cc21` (stereo not shown): 7.93%. The figure for `C=CCn1c(SCC(=O)Nc2nc3ccccc3s2)nc(O)c(CC)c1=O` is 10.3%; for `NC(=O)C1(N2CCCCC2)CCN(Cc2ccc(Br)cc2)CC1` it is -22.6%; for `CCCc1cc2c(=O)c(-c3ccc4c(c3)OCCO4)c(C)oc2cc1OS(C)(=O)=O` it is -1.66%. The figure for `COc1ccc(NC(=O)CN(C)CC(=O)NCc2ccc(C)cc2)cc1` is 2.26%; for `Cc1ccc(C(=O)NC(=S)Nc2ccccc2C)cc1` it is -2.95%; for `COc1ccccc1-c1nnc(NC(=O)Cc2ccccc2)o1` it is 17%.

Turning to `CCOC(=O)c1ccc(NC(=S)NCc2cccnc2)cc1`, the “hERG current change (%, negative = inhibition) at 1uM” value is given as 18.7%.

As for `O=C(CSc1nnc(-c2cccc(F)c2)o1)N1CCCC1`, the “hERG current change (%, negative = inhibition) at 1uM” value stood at 8.74%. The figure for `Cc1ccc(C(=O)N/N=C/c2ccc(N3CCOCC3)cc2)c(C)c1` is 19.4%; for `COC(=O)c1ccc(OCC2NCCc3cc(OC)c(OC)cc32)cc1` (stereo not shown) it is 0.932%; for `COc1nc(OC/C(N)=N/O)nc(N2CCOCC2)n1` it is -9.18%. Next, `Cc1cc(Oc2ccccc2)nc(SCC(=O)Nc2ccccc2)n1`: 15.9%; `CN(c1ccccc1)S(=O)(=O)c1cccc(NC(=O)CSc2ncc(C(F)(F)F)cc2Cl)c1`: 9.03%; `COC(=O)CNC(=O)Cc1c(F)cccc1Cl`: 9.57%. The figure for `COc1ccc(N(CC(=O)N2CCN(c3ccc(Cl)cc3)CC2)S(=O)(=O)c2c(C)n[nH]c2C)cc1` is 7.13%; for `Cn1c(=O)c(C(=O)CSc2nncs2)c(N)n(Cc2ccccc2)c1=O` it is 22.2%. As to `NC(=O)CCC(NC(=O)c1ccc(Cl)cc1)C(=O)O` (stereo not shown), the “hERG current change (%, negative = inhibition) at 1uM” value was found to be 14.2%. The figure for `CCN1CCN(C(=O)C2CCN(S(=O)(=O)c3ccc(SC)cc3)CC2)CC1` is 9.37%; for `COc1cccc(C(C#N)N2N=C(C)CC2(C)C)c1O` (stereo not shown) it is 13.5%; for `CCOC(=O)CSc1nc2ccccc2c(=O)n1Cc1ccco1` it is 0.785%. The figure for `CN1CCN(c2ncnc3c2cnn3-c2ccc(Cl)cc2)CC1` is 14.8%; for `O=C(Cc1ccccc1F)Nc1nc(-c2ccc(F)c(F)c2)cs1` it is 6.68%; for `O=C(Nc1nc2ccccc2n1Cc1ccccc1)c1ccco1` it is 12.6%.

`COc1ccc(-c2cc(C#N)nc(NN)n2)cc1`: the “hERG current change (%, negative = inhibition) at 1uM” value is given as 12.2%. As to `CCC1CCC(C(=O)NC(C(=O)NCCc2ccc(S(N)(=O)=O)cc2)C(C)C)CC1` (stereo not shown), the “hERG current change (%, negative = inhibition) at 1uM” value worked out at 15.1%.

Take `Cc1ccc(N(C(=O)CCC(=O)Nc2ccccn2)C(C(=O)NC(C)C)c2ccc(F)cc2)cc1` (stereo not shown): the “hERG current change (%, negative = inhibition) at 1uM” value stood at 17.1%. Next, `COc1ccc(C(=O)NCC(C)C)c(OC)c1`: 7.16%. `COc1ccc2c(c1)CCN=C2Cc1ccc(OC)c(OC)c1.Cl`: the “hERG current change (%, negative = inhibition) at 1uM” value is listed as 5.9%. The figure for `CCCCc1nc(SCC(=O)Nc2cccc(Cl)c2)n[nH]1` is 10.9%. The figure for `CCOC(=O)CCCOC(=O)c1ccc(S(=O)(=O)N(C)C)cc1` is 6.39%; for `CC(=O)Nc1nc(-c2ccc3ccccc3c2)cs1` it is 9.4%; for `CNc1c(NS(=O)(=O)c2ccc(OC)c(Cl)c2)c(=O)oc2ccccc12` it is 10.5%. On to `O=C(OCC(CO)OC(CO)n1ccc(=O)[nH]c1=O)c1ccccc1` (stereo not shown), for which the “hERG current change (%, negative = inhibition) at 1uM” value came out at 9.5%. The figure for `O=C(CN1CCN(c2ncc(C(F)(F)F)cc2Cl)CC1)Nc1ccc2c(c1)OCO2` is 1.03%; for `COc1ccc(CNC(=O)CSc2nc3nc(C)cc(C)n3n2)cc1` it is 7.4%; for `O=c1[nH]c2ccccc2c2ccccc12` it is 15.2%. On to `Cc1ccc(NC(=O)COn2nnc3ccc(S(=O)(=O)N(C)C)cc32)cc1F`, for which the “hERG current change (%, negative = inhibition) at 1uM” value amounted to 11.4%. The figure for `Cc1ccc(NC(=O)CCC(=O)NNC(=O)Cc2ccccc2)cc1C` is 5.79%; for `CC(C)CC(OC(=O)c1nsc(Cl)c1Cl)C(=O)NC1CCCC1` (stereo not shown) it is 13.9%; for `Cc1ccccc1-n1nnnc1SCC(=O)c1c(N)n(C)c(=O)n(C)c1=O` it is 10.2%.

Turning to `COc1cc(/C=N\NC(=O)Cn2nnc3ccccc32)cc(OC)c1OC`, the “hERG current change (%, negative = inhibition) at 1uM” value is given as -3.76%.
